Measurements reported in PubChem BioAssay (Tox21).
Values joined by “and” are separate entries in the source; they are usually repeats but may differ in a detail not shown here. Equal entries are not always repeated. This list was built around the results that the source calls inconclusive (neither active nor inactive); the mix of calls is not that of the screen. Potencies of inconclusive entries are doubtful fits and often do not repeat. Some compounds were tested as several samples or in several runs, with calls that do not always agree. Active and inactive are the calls of the source. The call rests on the fitted dose curve; in most records, active means well fitted curve in the direction sought with a large enough effect in the repeat runs; inconclusive means weak or mixed curves; inactive means no such curve, though single readings can be large; an effect the other way counts as inactive or inconclusive.

Assays:
[1] = A CellTox Green Cytotoxicity Assay to monitor cytotoxicity in HepG2 cells - 32 hour (AID 1224883); further: nearly all actives have a fitted effect of over 50% in size
How it was run: (§1)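 HepG2 cells were seeded together with the CellTox Green dye at 600 cells/well, left 5 h at 37 C/5% CO2, then given compounds in DMSO. Fluorescence from dye bound to dead-cell DNA was read repeatedly over 40 h of treatment at 37 C.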

[2] = A CellTox Green Cytotoxicity Assay to monitor cytotoxicity in HepG2 cells - 8 hour (AID 1224890); further: nearly all actives have a fitted effect of over 45% in size
How it was run: as §1

[3] = qHTS RealTime-Glo MT Cell Viability Assay in HEK293 cells - 8 hour (AID 1224887); further: nearly all actives have a fitted effect of over 50% in size
How it was run: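 HEK293 cells mixed with RealTime-Glo reagents (NanoLuc plus cell-permeant prosubstrate) at 600 cells/well, preincubated 5 h at 37 C/5% CO2, then given 23 nL compound in DMSO. Nonlytic luminescence from viable cells was read at 0, 8, 16, 24, 32 and 40 h.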

[4] = qHTS assay to identify small molecule antagonists of the estrogen receptor alpha (ER-alpha) signaling pathway using the BG1 cell line in the presence of 0.1 nM 17-beta-estradiol - cell viability counter screen (AID 1259241); further: nearly all actives have a fitted effect of over 40% in size
How it was run: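 Live-cell protease activity (CellTiter-Fluor fluorescence, 30 min) was read in the same wells after VM7Luc4E2 cells had been exposed to compounds with 0.1 nM 17beta-estradiol for 22 hr at 37C.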

[5] = qHTS RealTime-Glo MT Cell Viability Assay in HepG2 cells - 0 hour (AID 1224889); further: nearly all actives have a fitted effect of over 50% in size
How it was run: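 qHTS, HepG2, 600 cells/well, RealTime-Glo (NanoLuc + prosubstrate) added with cells; 5 h preincubation; DMSO compound addition; 37 C; luminescence at 0/8/16/24/32/40 h.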

[6] = qHTS RealTime-Glo MT Cell Viability Assay in HEK293 cells - 24 hour (AID 1224886); further: nearly all actives have a fitted effect of over 50% in size
How it was run: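 Assay medium contained NanoLuc luciferase plus cell-permeant prosubstrate, added with HEK293 cells at 600 cells/well. After 5 h at 37 C/5% CO2 compounds were added; plates stayed at 37 C for 40 h with serial luminescence reads.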

[7] = A CellTox Green Cytotoxicity Assay to monitor cytotoxicity in HEK293 cells - 16 hour (AID 1224888); further: nearly all actives have a fitted effect of over 35% in size
How it was run: (§2)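 HEK293 cells premixed with CellTox Green dye were seeded at 600 cells/well and left 5 h at 37 C/5% CO2 before pin transfer of 23 nL compound in DMSO. Fluorescence from dye bound to dead-cell DNA was read during 40 h treatment.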

[8] = A CellTox Green Cytotoxicity Assay to monitor cytotoxicity in HEK293 cells - 8 hour (AID 1224884); further: nearly all actives have a fitted effect of over 35% in size
How it was run: as §2
Potency means the concentration at half of the fitted maximal effect; tags describe the fitted curve by direction and shape.

In the case of CN(N=O)C(=O)N[C@@H]1[C@@H](O)[C@H](O)[C@@H](CO)O[C@@H]1O, the Potency [1] is reported as inconclusive: 13.4 µM [activator, single point] and the Potency [2] is reported as inconclusive: 10.7 µM [activator, single point].

For CC(=O)C1=C(C)[C@@H]2C[C@@]3(C1)[C@H](C)CC[C@H]3C2(C)C, the Potency [1] was inconclusive: 64.4 µM [activator, partial curve, poor fit] and the Potency [3] was “inactive”.

With CC(CC1c2ccccc2CCc2ccccc21)CN(C)C (stereo not given) the Potency [1] was inconclusive: 26.8 µM [activator, single point] and the Potency [4] was inconclusive: 37.6 µM [cytotoxic, single point].

With CC(CN(CCN(CC(C)OCCO)CC(C)OCCO)CC(C)OCCO)OCCO (stereo not given) the Potency [1] was inconclusive: 59.4 µM [activator, single point], the Potency [3] was inconclusive: 14.9 µM [cytotoxic, full curve] and the Potency [4] was “inactive”.

With C=C1CC[C@H](O)C/C1=C\C=C1/CCC[C@]2(C)[C@@H]([C@H](C)CCCC(C)C)CC[C@@H]12 the Potency [1] was “inactive”, the Potency [3] was active: 24.3 µM and the Potency [5] was inconclusive: 34.4 µM [cytotoxic, partial curve, poor fit].

With Nc1ccc(O)c([N+](=O)[O-])c1 the Potency [1] was “inactive”, the Potency [6] was inconclusive: 21.9 µM [cytotoxic, partial curve, poor fit] and the Potency [5] was inconclusive: 54.4 µM [cytotoxic]. For the same molecule, the Potency [4] was inconclusive: 21.5 µM [cytotoxic, full curve].

In the case of CCOc1ccc2c(c1)C(C)=CC(C)(C)N2, the Potency [1] is reported as inconclusive: 21.9 µM [activator, single point], the Potency [3] is reported as inconclusive: 38.7 µM [cytotoxic, partial curve] and the Potency [5] is reported as inconclusive: 21.9 µM [rising, single point].

With NC(=O)OCC(COC(N)=O)c1ccccc1 the Potency [1] was inconclusive: 54.9 µM [activator, single point], the Potency [7] was inconclusive: 54.9 µM [activator, single point] and the Potency [2] was inconclusive: 61.6 µM [activator, single point].

With C=C(C)C1CC=C(C)C(OC(C)=O)C1 (stereo not given) the Potency [8] was inconclusive: 54.7 µM [activator, single point].

For CCN(Cc1cccc(S(=O)(=O)O)c1)c1ccc(C(=C2C=CC(=[N+](CC)Cc3cccc(S(=O)(=O)O)c3)C=C2)c2ccc(O)cc2S(=O)(=O)[O-])cc1, the Potency [1] was “inactive” and the Potency [4] was active: 16.6 µM.

For CC(C)(C)C(=O)C1C(=O)c2ccccc2C1=O, the Potency [1] was active: 54.4 µM and the Potency [4] was inconclusive: 67.9 µM [cytotoxic, single point] and active: 54.5 µM.

With CCC(C)c1cc([N+](=O)[O-])cc([N+](=O)[O-])c1OC(=O)OC(C)C (stereo not given) the Potency [1] was inconclusive: 54.9 µM [activator, single point], the Potency [6] was inconclusive: 43.6 µM [cytotoxic, partial curve] and the Potency [4] was active: 38.6 µM.

With CC[C@H]1OC(=O)[C@H](C)[C@@H](O[C@H]2C[C@@](C)(OC)[C@@H](O)[C@H](C)O2)[C@H](C)[C@@H](O[C@@H]2O[C@H](C)C[C@H](N(C)C)[C@H]2O)[C@](C)(O)C[C@@H](C)C(=O)[C@H](C)[C@@H](O)[C@]1(C)O the Potency [1] was “inactive” and the Potency [4] was inconclusive: 21 µM [cytotoxic, partial curve].

For Cc1occc1SSc1ccoc1C, the Potency [1] was active: 54.9 µM, the Potency [6] was “inactive” and the Potency [2] was inconclusive: 54.9 µM [activator, single point].

For CCCCOC(=O)C(C)CC (stereo not given), the Potency [1] was “inactive” and the Potency [4] was inconclusive: 27.3 µM [cytotoxic, single point].

With Cc1c(C)c2c(c(C)c1OC(=O)CCC(=O)O)CC[C@@](C)(CCC[C@H](C)CCC[C@H](C)CCCC(C)C)O2 the Potency [1] was inconclusive: 55.6 µM [activator, single point], the Potency [6] was inconclusive: 19.7 µM [cytotoxic, partial curve] and the Potency [5] was inconclusive: 14 µM [cytotoxic, partial curve, poor fit].

In the case of C=C(CC)C(=O)c1ccc(OCC(=O)O)c(Cl)c1Cl, the Potency [1] is reported as inconclusive: 61.2 µM [activator, single point] and the Potency [2] is reported as “inactive”.

For CCOc1ccccc1C(N)=O, the Potency [8] was inconclusive: 0.268 µM [activator, partial curve].

In the case of CC[C@H](C)COC(=O)/C=C/c1ccc(N=Cc2ccc(OC)cc2)cc1, the Potency [1] is reported as inconclusive: 54.9 µM [activator, single point] and the Potency [3] is reported as inconclusive: 21.8 µM [cytotoxic, partial curve].

For O=C1Cc2ccccc2N1c1c(Cl)cccc1Cl, the Potency [1] was inconclusive: 21.9 µM [activator, single point] and the Potency [3] was inconclusive: 49 µM [cytotoxic, single point].

For CC(C)(C)C(=O)C(=O)O, the Potency [1] was inconclusive: 61.6 µM [activator, single point] and the Potency [7] was inconclusive: 49 µM [activator, single point].

For O=C(NS(=O)(=O)/C=C/c1ccccc1)c1ccc(F)cc1Cl, the Potency [1] was active: 54.9 µM and the Potency [5] was active: 19.5 µM.

For c1cc(N(CC2CO2)CC2CO2)ccc1OCC1CO1 (stereo not given), the Potency [1] was inconclusive: 54.9 µM [activator, single point], the Potency [6] was inconclusive: 55 µM [cytotoxic, single point] and inconclusive: 54.9 µM [cytotoxic, single point] and the Potency [4] was inconclusive: 68.7 µM [cytotoxic, partial curve, poor fit].

For CCCCCCOC(=O)c1ccccc1O, the Potency [8] was inconclusive: 61.6 µM [activator, single point].

For CCCCCCC(O)CCCCCCCCCCC(=O)O (stereo not given), the Potency [1] was inconclusive: 21.9 µM [activator, single point] and the Potency [7] was inconclusive: 21.9 µM [activator, partial curve, poor fit].

For O=c1c(O)c(-c2ccc(O)cc2O)oc2cc(O)cc(O)c12, the Potency [1] was inconclusive: 20.6 µM [activator, single point] and the Potency [5] was inconclusive: 41.1 µM [cytotoxic, partial curve].

With CC1=CCC(C(C)(C)O)CC1 (stereo not given) the Potency [1] was active: 21.9 µM and the Potency [7] was inconclusive: 19.5 µM [activator, single point].

For C=CC(=O)OCCn1c(=O)n(CCOC(=O)C=C)c(=O)n(CCOC(=O)C=C)c1=O, the Potency [1] was active: 43.6 µM and the Potency [4] was active: 48.6 µM.

In the case of O=C(Nc1cccc2c(=O)cc(-c3nn[nH]n3)oc12)c1ccc(OCCCCc2ccccc2)cc1, the Potency [1] is reported as inconclusive: 26.8 µM [activator, single point], the Potency [5] is reported as inconclusive: 23.9 µM [cytotoxic, partial curve, poor fit] and the Potency [2] is reported as active: 21.3 µM.

With ClC/C=C\CCl the Potency [8] was “inactive”.

With O=C1c2ccccc2C(=O)C1(O)O the Potency [1] was inconclusive: 55.3 µM [activator, single point] and the Potency [7] was “inactive”.

With O=C(O)CCCCCCC(=O)O the Potency [8] was inconclusive: 35 µM [activator, single point].

In the case of Cc1ccc(O)c(-n2nc3ccccc3n2)c1, the Potency [1] is reported as inconclusive: 54.5 µM [activator, partial curve, poor fit] and the Potency [3] is reported as inconclusive: 21.9 µM [cytotoxic, partial curve].

In the case of C=C(C)[C@@H]1CCC2=CCC[C@@H](C)[C@]2(C)C1, the Potency [1] is reported as inconclusive: 54.9 µM [activator, single point] and the Potency [5] is reported as inconclusive: 43.6 µM [cytotoxic, partial curve].

In the case of NC(=O)CC[C@@H]1NC(=O)[C@H](Cc2ccccc2)NC(=O)[C@H](Cc2ccc(O)cc2)NC(=O)CCSSC[C@@H](C(=O)N2CCC[C@H]2C(=O)N[C@@H](CCCN=C(N)N)C(=O)NCC(N)=O)NC(=O)[C@H](CC(N)=O)NC1=O, the Potency [8] is reported as inconclusive: 3.01 µM [activator, partial curve, poor fit].

In the case of CCCCCCCCCCCC[N+](C)(C)CCCCCCCCCCCC, the Potency [1] is reported as active: 7.76 µM, the Potency [3] is reported as active: 17.4 µM and the Potency [5] is reported as inconclusive: 38.9 µM [cytotoxic, partial curve, poor fit]. For the same molecule, the Potency [2] was active: 19.5 µM and the Potency [4] was active: 54.5 µM.

In the case of CC1CCCCN1CCCOC(=O)c1ccc(OC2CCCCC2)cc1 (stereo not given), the Potency [1] is reported as active: 26.8 µM and the Potency [3] is reported as active: 10.7 µM.

In the case of Cc1ccc([N+](=O)[O-])c(N)c1, the Potency [1] is reported as “inactive”, the Potency [6] is reported as “inactive” and the Potency [4] is reported as inconclusive: 53.2 µM [cytotoxic, partial curve].
